40 sequences from the supplement of paper PMC7826260 can be followed below.

Some of the results follow. The data describe in vitro nicking of single-stranded DNA by Rep domains (3 µM enzyme, 1 h, 37 °C); shown is the middle of each 90-letter strand. Numbers give uncut DNA relative to the enzyme-free pool, as log2; uncut sequences lie near 0, cut ones below; no hit call is given. Counts are relative to all reads; uncut strands gain when others are lost, and binding without cutting may add a little.

In the experiment the test system is T1, Rep nickase domain of tomato golden mosaic virus.
T1 sequence (Rep 1-124, printed without the tag): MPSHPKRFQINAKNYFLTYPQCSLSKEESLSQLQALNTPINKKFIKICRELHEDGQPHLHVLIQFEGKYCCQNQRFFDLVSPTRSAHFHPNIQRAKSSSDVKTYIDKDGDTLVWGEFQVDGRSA
In words: uncleaved DNA left, log2 of reads against the no-enzyme library (log2 ratio); higher = less cleavage (more negative = more Rep cleavage of the k-mer); sequences stand for … in CTCGTCCG…ACCGGAGA
The procedure:
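A pool of 90-nt single-stranded DNAs with seven random bases just before the constant AC of the nick site (name = the seven bases) was cut by 3 µM recombinant His6-SUMO-tagged Rep nickase domain (300 nM DNA, 50 mM HEPES pH 8.0, 50 mM NaCl, 1 mM MnCl2, 1 h, 37 °C, three replicates). Uncut DNA was amplified and sequenced.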
Consider CATATGA, for which the “uncleaved DNA left (log2)” value is 0.0768.
For TCTTCCA, the “uncleaved DNA left (log2)” value is -0.0591.
Consider ATGGTGA, for which the “uncleaved DNA left (log2)” value came to 0.146.
Then ATCCAGA, with 0.0501; and ATTTCAT, with -0.0376; and TCTTTGG, with -0.0174.
Then CGAAAGA, with -0.0488; and CGCAAAA, with 0.0726; and CTATAAT, with -0.665.
Then CTCACAT, with 0.00534; and GCATTCG, with -0.148.
GGCCTTA: the “uncleaved DNA left (log2)” value came to 0.082.
The result for AGCAGTC reads 0.128; that for AGGTTAC, -0.0752; that for ACATAAA, 0.0517.
Then TGCTTAT, with 0.0381.
As for AGGGGCT, the “uncleaved DNA left (log2)” value turned out to be 0.073.
Then ATACGCC, with -0.0699; and TTTGCGT, with -0.292; and GCCCTCA, with -0.00814.
The result for AAGTGCC reads -0.108; that for CGTCGCC, -0.0263.
Then TTATGGA, with 0.123; and CCAATGT, with 0.0407; and GACAGTT, with -0.113.
As to CAATTCA, the “uncleaved DNA left (log2)” value is -0.31.
Consider TAACCAA, for which the “uncleaved DNA left (log2)” value is -0.0393.
The result for CGCAACT reads -0.139; that for ATATGAT, 0.167.
Then GTGTAGT, with 0.21.
Take AACGTAG: the “uncleaved DNA left (log2)” value came to 0.00805.
The result for CCCATCC reads 0.0647.
Regarding TAATAGT, the “uncleaved DNA left (log2)” value was -4.4.
The result for ACGGATC reads -0.0512; that for CTCTACT, -0.00611.
The result for GCTGCGT reads -0.107; that for ATCAACC, -0.0279.
Then ACTAACC, with 0.0795; and TGGATTG, with 0.0176.
TTCGGGG: the “uncleaved DNA left (log2)” value was -0.00353.
